# In PMC12820563, “FoxP3 forms a head-to-head dimer in vivo and stabilizes its multimerization on adjacent microsatellites”:
# The list shows a part of the results.
# Molecular target: T1, MBP-FoxP1dN (Mus musculus, UniProt P58462 326-579)
# T1 sequence: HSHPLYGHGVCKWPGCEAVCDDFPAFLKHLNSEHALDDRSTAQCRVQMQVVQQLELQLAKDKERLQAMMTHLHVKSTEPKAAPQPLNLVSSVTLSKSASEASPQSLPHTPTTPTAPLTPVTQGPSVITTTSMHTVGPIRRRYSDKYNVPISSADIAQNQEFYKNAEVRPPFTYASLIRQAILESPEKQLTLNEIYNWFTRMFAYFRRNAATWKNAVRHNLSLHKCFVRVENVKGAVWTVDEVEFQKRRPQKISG
# Assay: PD-seq (MBP pull-down with sequencing); 20 mM Tris-HCl pH 7.5, 100 mM NaCl, 1.5 mM MgCl2, 0.4 uM protein, 0.1 uM dsDNA library, 30 min, room temperature, amylose pull-down; high values mean tight binding
# Details: protein: recombinant; tags: His6-MBP; chain copies: 2; dsDNA, one strand shown
# Outline: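 In Tris pH 7.5 buffer with NaCl and MgCl2, 0.4 µM His6-MBP-tagged mouse FoxP3 or FoxP1 fragment lacking the N-terminus, from E. coli, met 0.1 µM Klenow-filled double-stranded degenerate DNA library for 30 min at room temperature. Three washes on amylose resin followed capture of the complexes, then proteinase K release of DNA, PCR barcoding and Illumina sequencing. Binding is taken as pooled-replicate reads-per-million enrichment of pull-down relative to input.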
row,Sequence,binding signal
1,GATGATTGTTCTCCCAGCTGATGAATTTGCTCTCTCGAGTAAACAAATTTTCCTAATCTTTCTGTTCAAGCGCCATCTAC,0.873 RPM ratio (pull-down/input)
2,GATGATTGTTCTCCCAGCTGATGAATTCTAAAACTCGAGTAAACAAATTTTCCTAATCTTTCTGTTCAAGCGCCATCTAC,0.844 RPM ratio (pull-down/input)
3,GATGATTGTTCTCCCAGCTGATGAATTAGAGTAGTCGAGTAAACAAATTTTCCTAATCTTTCTGTTCAAGCGCCATCTAC,0.974 RPM ratio (pull-down/input)
4,GATGATTGTTCTCCCAGCTGATGAATTAGGGGACTCGAGTAAACAAATTTTCCTAATCTTTCTGTTCAAGCGCCATCTAC,0.833 RPM ratio (pull-down/input)
5,GATGATTGTTCTCCCAGCTGATGAATTGTGAGTCTCGAGTAAACAAATTTTCCTAATCTTTCTGTTCAAGCGCCATCTAC,0.952 RPM ratio (pull-down/input)
6,GATGATTGTTCTCCCAGCTGATGAATTTCAGTAATCGAGTAAACAAATTTTCCTAATCTTTCTGTTCAAGCGCCATCTAC,1.32 RPM ratio (pull-down/input)
7,GATGATTGTTCTCCCAGCTGATGAATTTTCCACATCGAGTAAACAAATTTTCCTAATCTTTCTGTTCAAGCGCCATCTAC,1.11 RPM ratio (pull-down/input)
8,GATGATTGTTCTCCCAGCTGATGAATTGCGATTTTCGAGTAAACAAATTTTCCTAATCTTTCTGTTCAAGCGCCATCTAC,1.25 RPM ratio (pull-down/input)
9,GATGATTGTTCTCCCAGCTGATGAATTTGCGGAGTCGAGTAAACAAATTTTCCTAATCTTTCTGTTCAAGCGCCATCTAC,0.799 RPM ratio (pull-down/input)
10,GATGATTGTTCTCCCAGCTGATGAATTGCGAAAGTCGAGTAAACAAATTTTCCTAATCTTTCTGTTCAAGCGCCATCTAC,1.08 RPM ratio (pull-down/input)
11,GATGATTGTTCTCCCAGCTGATGAATTCTTTAGTTCGAGTAAACAAATTTTCCTAATCTTTCTGTTCAAGCGCCATCTAC,0.861 RPM ratio (pull-down/input)
12,GATGATTGTTCTCCCAGCTGATGAATTGACTTAGTCGAGTAAACAAATTTTCCTAATCTTTCTGTTCAAGCGCCATCTAC,1.03 RPM ratio (pull-down/input)
13,GATGATTGTTCTCCCAGCTGATGAATTACTTTCTTCGAGTAAACAAATTTTCCTAATCTTTCTGTTCAAGCGCCATCTAC,1.06 RPM ratio (pull-down/input)
14,GATGATTGTTCTCCCAGCTGATGAATTCTGATTCTCGAGTAAACAAATTTTCCTAATCTTTCTGTTCAAGCGCCATCTAC,0.884 RPM ratio (pull-down/input)
15,GATGATTGTTCTCCCAGCTGATGAATTACCATAGTCGAGTAAACAAATTTTCCTAATCTTTCTGTTCAAGCGCCATCTAC,0.965 RPM ratio (pull-down/input)
16,GATGATTGTTCTCCCAGCTGATGAATTCCCTACGTCGAGTAAACAAATTTTCCTAATCTTTCTGTTCAAGCGCCATCTAC,0.821 RPM ratio (pull-down/input)
17,GATGATTGTTCTCCCAGCTGATGAATTTCTTAAGTCGAGTAAACAAATTTTCCTAATCTTTCTGTTCAAGCGCCATCTAC,0.87 RPM ratio (pull-down/input)
18,GATGATTGTTCTCCCAGCTGATGAATTACGTCCTTCGAGTAAACAAATTTTCCTAATCTTTCTGTTCAAGCGCCATCTAC,0.982 RPM ratio (pull-down/input)
19,GATGATTGTTCTCCCAGCTGATGAATTCATGAAGTCGAGTAAACAAATTTTCCTAATCTTTCTGTTCAAGCGCCATCTAC,0.839 RPM ratio (pull-down/input)
20,GATGATTGTTCTCCCAGCTGATGAATTCGTCAACTCGAGTAAACAAATTTTCCTAATCTTTCTGTTCAAGCGCCATCTAC,0.958 RPM ratio (pull-down/input)
21,GATGATTGTTCTCCCAGCTGATGAATTTTGTAGCTCGAGTAAACAAATTTTCCTAATCTTTCTGTTCAAGCGCCATCTAC,1.03 RPM ratio (pull-down/input)

row,Sequence,binding signal
1,GATGATTGTTCTCCCAGCTGATGAATTATGTTACTCGAGTAAACAAATTTTCCTAATCTTTCTGTTCAAGCGCCATCTAC,1.21 RPM ratio (pull-down/input)
2,GATGATTGTTCTCCCAGCTGATGAATTCAATAATTCGAGTAAACAAATTTTCCTAATCTTTCTGTTCAAGCGCCATCTAC,1.06 RPM ratio (pull-down/input)
3,GATGATTGTTCTCCCAGCTGATGAATTCGGCTTGTCGAGTAAACAAATTTTCCTAATCTTTCTGTTCAAGCGCCATCTAC,0.828 RPM ratio (pull-down/input)
4,GATGATTGTTCTCCCAGCTGATGAATTGCCAGCTTCGAGTAAACAAATTTTCCTAATCTTTCTGTTCAAGCGCCATCTAC,0.907 RPM ratio (pull-down/input)
5,GATGATTGTTCTCCCAGCTGATGAATTGACCAGCTCGAGTAAACAAATTTTCCTAATCTTTCTGTTCAAGCGCCATCTAC,0.83 RPM ratio (pull-down/input)
6,GATGATTGTTCTCCCAGCTGATGAATTAGTAATTTCGAGTAAACAAATTTTCCTAATCTTTCTGTTCAAGCGCCATCTAC,1.07 RPM ratio (pull-down/input)
7,GATGATTGTTCTCCCAGCTGATGAATTACGAGGTTCGAGTAAACAAATTTTCCTAATCTTTCTGTTCAAGCGCCATCTAC,0.966 RPM ratio (pull-down/input)
8,GATGATTGTTCTCCCAGCTGATGAATTCTCCCTATCGAGTAAACAAATTTTCCTAATCTTTCTGTTCAAGCGCCATCTAC,0.991 RPM ratio (pull-down/input)
9,GATGATTGTTCTCCCAGCTGATGAATTTCCCGCATCGAGTAAACAAATTTTCCTAATCTTTCTGTTCAAGCGCCATCTAC,1.09 RPM ratio (pull-down/input)
10,GATGATTGTTCTCCCAGCTGATGAATTATTGGCGTCGAGTAAACAAATTTTCCTAATCTTTCTGTTCAAGCGCCATCTAC,1.13 RPM ratio (pull-down/input)
11,GATGATTGTTCTCCCAGCTGATGAATTTAACCTGTCGAGTAAACAAATTTTCCTAATCTTTCTGTTCAAGCGCCATCTAC,0.834 RPM ratio (pull-down/input)
12,GATGATTGTTCTCCCAGCTGATGAATTCATCCATTCGAGTAAACAAATTTTCCTAATCTTTCTGTTCAAGCGCCATCTAC,0.889 RPM ratio (pull-down/input)
13,GATGATTGTTCTCCCAGCTGATGAATTTTGATCTTCGAGTAAACAAATTTTCCTAATCTTTCTGTTCAAGCGCCATCTAC,0.96 RPM ratio (pull-down/input)
14,GATGATTGTTCTCCCAGCTGATGAATTCGCCGAGTCGAGTAAACAAATTTTCCTAATCTTTCTGTTCAAGCGCCATCTAC,0.759 RPM ratio (pull-down/input)
15,GATGATTGTTCTCCCAGCTGATGAATTACTTCGTTCGAGTAAACAAATTTTCCTAATCTTTCTGTTCAAGCGCCATCTAC,1.03 RPM ratio (pull-down/input)
16,GATGATTGTTCTCCCAGCTGATGAATTCGCTAGATCGAGTAAACAAATTTTCCTAATCTTTCTGTTCAAGCGCCATCTAC,0.861 RPM ratio (pull-down/input)
17,GATGATTGTTCTCCCAGCTGATGAATTAGTTCGTTCGAGTAAACAAATTTTCCTAATCTTTCTGTTCAAGCGCCATCTAC,0.937 RPM ratio (pull-down/input)
18,GATGATTGTTCTCCCAGCTGATGAATTACGTAGCTCGAGTAAACAAATTTTCCTAATCTTTCTGTTCAAGCGCCATCTAC,0.976 RPM ratio (pull-down/input)
19,GATGATTGTTCTCCCAGCTGATGAATTTGCGACGTCGAGTAAACAAATTTTCCTAATCTTTCTGTTCAAGCGCCATCTAC,1.04 RPM ratio (pull-down/input)
20,GATGATTGTTCTCCCAGCTGATGAATTGTACCCGTCGAGTAAACAAATTTTCCTAATCTTTCTGTTCAAGCGCCATCTAC,0.942 RPM ratio (pull-down/input)
21,GATGATTGTTCTCCCAGCTGATGAATTCACATACTCGAGTAAACAAATTTTCCTAATCTTTCTGTTCAAGCGCCATCTAC,0.981 RPM ratio (pull-down/input)

row,Sequence,binding signal
1,GATGATTGTTCTCCCAGCTGATGAATTTGGTCGGTCGAGTAAACAAATTTTCCTAATCTTTCTGTTCAAGCGCCATCTAC,0.852 RPM ratio (pull-down/input)
2,GATGATTGTTCTCCCAGCTGATGAATTGGCTCCCTCGAGTAAACAAATTTTCCTAATCTTTCTGTTCAAGCGCCATCTAC,0.824 RPM ratio (pull-down/input)
3,GATGATTGTTCTCCCAGCTGATGAATTGGGTCCGTCGAGTAAACAAATTTTCCTAATCTTTCTGTTCAAGCGCCATCTAC,0.797 RPM ratio (pull-down/input)
4,GATGATTGTTCTCCCAGCTGATGAATTTTCTAGTTCGAGTAAACAAATTTTCCTAATCTTTCTGTTCAAGCGCCATCTAC,0.895 RPM ratio (pull-down/input)
5,GATGATTGTTCTCCCAGCTGATGAATTTCGCTCCTCGAGTAAACAAATTTTCCTAATCTTTCTGTTCAAGCGCCATCTAC,0.842 RPM ratio (pull-down/input)
6,GATGATTGTTCTCCCAGCTGATGAATTTTAACTCTCGAGTAAACAAATTTTCCTAATCTTTCTGTTCAAGCGCCATCTAC,0.872 RPM ratio (pull-down/input)
7,GATGATTGTTCTCCCAGCTGATGAATTGGTACACTCGAGTAAACAAATTTTCCTAATCTTTCTGTTCAAGCGCCATCTAC,1.15 RPM ratio (pull-down/input)
8,GATGATTGTTCTCCCAGCTGATGAATTAATTGGCTCGAGTAAACAAATTTTCCTAATCTTTCTGTTCAAGCGCCATCTAC,0.936 RPM ratio (pull-down/input)
9,GATGATTGTTCTCCCAGCTGATGAATTCGACAGTTCGAGTAAACAAATTTTCCTAATCTTTCTGTTCAAGCGCCATCTAC,0.853 RPM ratio (pull-down/input)
10,GATGATTGTTCTCCCAGCTGATGAATTGTTTGTATCGAGTAAACAAATTTTCCTAATCTTTCTGTTCAAGCGCCATCTAC,2.64 RPM ratio (pull-down/input)
11,GATGATTGTTCTCCCAGCTGATGAATTCGTATTTTCGAGTAAACAAATTTTCCTAATCTTTCTGTTCAAGCGCCATCTAC,1.67 RPM ratio (pull-down/input)
12,GATGATTGTTCTCCCAGCTGATGAATTAGGCGGTTCGAGTAAACAAATTTTCCTAATCTTTCTGTTCAAGCGCCATCTAC,0.893 RPM ratio (pull-down/input)
13,GATGATTGTTCTCCCAGCTGATGAATTTGGTGGGTCGAGTAAACAAATTTTCCTAATCTTTCTGTTCAAGCGCCATCTAC,0.806 RPM ratio (pull-down/input)
14,GATGATTGTTCTCCCAGCTGATGAATTTTTAGAATCGAGTAAACAAATTTTCCTAATCTTTCTGTTCAAGCGCCATCTAC,1.06 RPM ratio (pull-down/input)
15,GATGATTGTTCTCCCAGCTGATGAATTTGTTTCATCGAGTAAACAAATTTTCCTAATCTTTCTGTTCAAGCGCCATCTAC,1.33 RPM ratio (pull-down/input)
16,GATGATTGTTCTCCCAGCTGATGAATTCTCCAAATCGAGTAAACAAATTTTCCTAATCTTTCTGTTCAAGCGCCATCTAC,0.987 RPM ratio (pull-down/input)
17,GATGATTGTTCTCCCAGCTGATGAATTCAACCACTCGAGTAAACAAATTTTCCTAATCTTTCTGTTCAAGCGCCATCTAC,0.908 RPM ratio (pull-down/input)
18,GATGATTGTTCTCCCAGCTGATGAATTTCTTGCTTCGAGTAAACAAATTTTCCTAATCTTTCTGTTCAAGCGCCATCTAC,0.927 RPM ratio (pull-down/input)
19,GATGATTGTTCTCCCAGCTGATGAATTTATGTAATCGAGTAAACAAATTTTCCTAATCTTTCTGTTCAAGCGCCATCTAC,1.95 RPM ratio (pull-down/input)
20,GATGATTGTTCTCCCAGCTGATGAATTCACCGTGTCGAGTAAACAAATTTTCCTAATCTTTCTGTTCAAGCGCCATCTAC,0.847 RPM ratio (pull-down/input)
21,GATGATTGTTCTCCCAGCTGATGAATTTTCTAAGTCGAGTAAACAAATTTTCCTAATCTTTCTGTTCAAGCGCCATCTAC,0.939 RPM ratio (pull-down/input)
